# Reference: paper PMC4336329 (PLoS ONE, 2015)
# About 14,000 (4.5%) of roughly 310,000 compounds showed an effect of 50% or more. The effect is printed as a negative number. This is one part of the list.
# Target: human ether-à-go-go-related gene (hERG) potassium channel (human, UniProt Q12809)
# Experiment: primary screen, population patch clamp on CHO cells stably expressing hERG
# 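Also: peak tail current of the secondary pulse compared with the same well before compound.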
# human ether-à-go-go-related gene (hERG) potassium channel, sequence (Q12809 whole entry, looked up): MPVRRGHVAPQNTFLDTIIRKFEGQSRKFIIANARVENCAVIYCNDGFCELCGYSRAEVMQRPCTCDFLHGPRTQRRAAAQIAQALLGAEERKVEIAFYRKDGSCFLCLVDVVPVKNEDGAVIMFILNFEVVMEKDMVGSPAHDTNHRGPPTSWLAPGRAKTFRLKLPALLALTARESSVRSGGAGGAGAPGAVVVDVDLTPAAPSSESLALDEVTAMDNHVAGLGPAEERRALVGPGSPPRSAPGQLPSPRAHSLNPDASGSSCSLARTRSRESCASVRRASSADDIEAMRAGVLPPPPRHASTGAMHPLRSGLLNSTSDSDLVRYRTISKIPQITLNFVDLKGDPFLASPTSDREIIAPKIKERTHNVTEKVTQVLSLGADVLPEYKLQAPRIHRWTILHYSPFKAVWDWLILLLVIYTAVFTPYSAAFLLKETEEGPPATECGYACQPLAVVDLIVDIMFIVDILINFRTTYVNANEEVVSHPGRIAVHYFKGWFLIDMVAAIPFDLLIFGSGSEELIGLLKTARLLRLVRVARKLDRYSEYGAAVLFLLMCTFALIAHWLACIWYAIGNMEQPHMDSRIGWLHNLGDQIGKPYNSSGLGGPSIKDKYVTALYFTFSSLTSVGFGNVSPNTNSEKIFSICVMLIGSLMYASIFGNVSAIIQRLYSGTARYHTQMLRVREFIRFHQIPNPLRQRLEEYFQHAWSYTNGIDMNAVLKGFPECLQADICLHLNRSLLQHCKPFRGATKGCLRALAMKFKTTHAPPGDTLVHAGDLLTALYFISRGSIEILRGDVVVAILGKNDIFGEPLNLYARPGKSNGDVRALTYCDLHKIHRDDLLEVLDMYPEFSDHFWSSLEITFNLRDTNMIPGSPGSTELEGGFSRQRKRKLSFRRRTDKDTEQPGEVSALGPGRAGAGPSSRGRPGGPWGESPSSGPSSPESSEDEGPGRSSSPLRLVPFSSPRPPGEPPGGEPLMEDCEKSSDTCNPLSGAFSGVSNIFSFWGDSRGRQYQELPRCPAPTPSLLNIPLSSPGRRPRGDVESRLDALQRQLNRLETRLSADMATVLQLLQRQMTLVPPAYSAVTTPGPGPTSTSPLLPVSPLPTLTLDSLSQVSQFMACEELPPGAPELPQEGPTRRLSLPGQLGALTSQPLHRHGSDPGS
row,SMILES,"hERG current change (%, negative = inhibition) at 10uM"
1,CC(=O)N1CCN(Cc2nc3cc(NC(=O)COc4cccc(C)c4)ccc3n2C)CC1.Cl,-15.3%
2,O=c1cc(CSc2nnnn2-c2ccc(O)cc2)nc2sccn12,-1.78%
3,COC(=O)c1ccc(C2c3c(oc4ccccc4c3=O)C(=O)N2CCCN2CCOCC2)cc1 (centres unmarked),-5.45%
4,COC(=O)c1sccc1NC(=O)c1ccccc1C(=O)O,15.5%
5,COc1ccc(C2c3[nH]c4ccccc4c3CCN2C(=O)Cc2nonc2C)c(F)c1 (centres unmarked),16.5%
6,COc1ccc(-c2csc(NC(=O)c3ccccc3F)n2)cc1,5.36%
7,CCOC(=O)C1CCN(c2ccc(-c3cccs3)nn2)CC1,-12.5%
8,CCOc1ccc(CNc2ccc(CNc3ncn[nH]3)cc2)cc1,12.9%
9,COc1ccc(-c2nc3ccccn3c2Cl)cc1,10.9%
10,CC(C)NC(=S)N=Nc1c(O)[nH]c2ccc(C(C)C)cc12,12.3%
11,CC1Cc2ccccc2N1C(=O)CN1CCC(n2nnc3cc(C(F)(F)F)ccc32)CC1 (centres unmarked),-67.2%
12,CCOC(=O)C1=C(COC(=O)c2cccnc2Cl)NC(=O)NC1C (centres unmarked),6.19%
13,Br.CC(C)c1nnc2n1N=C(c1ccc(Cl)cc1)CS2,3.75%
14,Cc1cc(NC(=O)c2ccc(Cl)c([N+](=O)[O-])c2)no1,11.2%
15,Cc1ccccc1-n1nc(C)c2cc(C(=O)N3CCN(S(=O)(=O)c4ccc(Cl)cc4)CC3)sc21,4.46%
16,CC(=O)Nc1cccc(-n2nnc(SCC(=O)Nc3ccccc3)n2)c1,13%
17,C=CCOc1c(Br)cc(CNn2nnnc2N)cc1OC,6.16%
18,O=C(Nc1cc(C(F)(F)F)ccc1Cl)C(Sc1ccccn1)c1ccccc1 (centres unmarked),11.1%
19,CC(=O)Nc1ccc(S(=O)(=O)N2CCN(Cc3ccncc3)CC2)cc1,-8.67%
20,O=C(O)C(Cc1ccc(O)cc1)N1C(=O)c2ccccc2C1=O (centres unmarked),4.9%
21,O=C(CCC(=O)c1cccs1)NNC(=O)c1ccccc1O,0.144%
22,CC(C)C(C(=O)NCc1ccco1)N(CC1CCCO1)C(=O)CNS(=O)(=O)c1ccc(F)cc1 (centres unmarked),-4.42%

row,SMILES,"hERG current change (%, negative = inhibition) at 10uM"
1,Cc1ccccc1CN1CCCN(Cc2ccc(Cl)cc2)S1(=O)=O,-1.63%
2,CCOc1ccc(/C(O)=C2/C(=O)C(=O)N(CC3CCCO3)C2c2cccs2)cc1 (centres unmarked),8.12%
3,COc1ccc(CNC(=O)CCS(=O)(=O)c2ccc3c(c2)CCN3C(C)=O)cc1,12.3%
4,CCCCN(CCCC)C(=O)c1cc2ccccc2c(=O)o1,-0.403%
5,COc1cccc(C2=CC(=O)C[C@H](c3ccc4c(c3)OCO4)C2)c1OC,1.22%
6,COc1ccc(NC(=O)CCCC(=O)c2ccccc2)cc1,24.1%
7,COC(=O)c1ccc(CN2CCCC(C(=O)c3cc(F)ccc3OC)C2)cc1 (centres unmarked),-68%
8,Cl.NCCCNc1ccc([N+](=O)[O-])cc1C(F)(F)F,-15%
9,O=C(NCc1cccnc1)C1c2ccccc2C(=O)N1Cc1ccccc1 (centres unmarked),0.956%
10,O=C(NCc1ccccc1CN1CCCC1)c1cccc(S(=O)(=O)N2CCCC2)c1,-55.1%
11,C/C(=N\NC(=S)NC1CCCCC1)c1cccc(Br)c1,12%
12,COc1cccc(CN2CCC(n3nccc3NC(=O)C3CC3)CC2)c1,-44.7%
13,CCOc1ccccc1N(CC(=O)N/N=C(\C)c1cccc(Br)c1)S(C)(=O)=O,8.73%
14,O=C(Nc1ccccc1O)c1ccc2c(c1)C(=O)N(Cc1ccco1)C2=O,5.13%
15,CNc1nc(N)c([N+](=O)[O-])c(Nc2cccc(Cl)c2)n1,3.64%
16,CCC(CC)c1nnc(NC(=O)C2COc3ccccc3O2)s1 (centres unmarked),0.247%
17,NC(=O)C1(NC(=O)[C@@H]2CC3(CC(c4cccc(NC(=O)[C@@H]5CCC(=O)N5)c4)=NO3)CN2C(=O)Cc2ccc(C(F)(F)F)cc2)CC1 (some centres unmarked),12.8%
18,CCC(=O)Nc1c2c(nn1-c1ccccc1C)CSC2,7.53%
19,COc1ccc(Nc2cc(C)nc3ccccc23)cc1.Cl,-36.5%
20,CC(C)Cn1c(SCC(=O)N2CCOCC2)nc2ccccc2c1=O,-5.9%
21,Cc1ccc(OCCCC(=O)Nc2ccc(N3CCOCC3)cc2)c(C)c1,8.49%
22,Cc1ccccc1C(=O)N(C)Cc1ccccc1,-2.82%

row,SMILES,"hERG current change (%, negative = inhibition) at 10uM"
1,COc1ccccc1Nc1ncc(C(=O)N2CCN(Cc3ccc(OC)c(OC)c3OC)CC2)c2ccccc12,-27.7%
2,CCn1cc(/C=C/C(=O)Nc2c(C)nn(Cc3ccccc3)c2C)cn1,0.487%
3,CN(C)c1ccc(C2NCCS2)cc1 (centres unmarked),14.9%
4,COc1ccc(-c2[nH]ncc2CNCCCSC)cc1F,-20.7%
5,CCOC(=O)C1=C(N)N2C(=O)C(C)SC2=C(C(=O)OC)C1c1cccc(OC)c1 (centres unmarked),-2.26%
6,O=C1CCCN1CCCNS(=O)(=O)c1ccc(F)c(F)c1,-5.66%
7,O=C(N/N=C/c1c(O)n(Cc2ccc(F)cc2)c(=S)[nH]c1=O)c1ccncc1,6.35%
8,COC(=O)C1=C(c2c(C)noc2C)C[C@@H]2CC[C@H]1N2C(=O)NCCOc1ccc(OC)cc1,7.23%
9,COc1c(C)cccc1C(=O)Nc1ccc(CN2CCCCC2)cc1,-30.7%
10,CCCCn1c(N)c(N(CCOC)C(=O)CCNC(=O)c2ccc(Cl)cc2)c(=O)[nH]c1=O,8.33%
11,Cc1cc2ccccc2c(=O)[nH]1,16.5%
12,CCC(O)(CC)C(=O)N/N=C/c1cc(Br)cc(Br)c1O,-1.02%
13,COc1cc(C)nc(N2CCC(C(=O)NC3CCCCC3)CC2)n1,-3.08%
14,COc1ccc(/C=C/c2ccncc2)c2ccccc12,9.43%
15,O=C(c1cc(COc2ccc(F)cc2Cl)on1)N1CCC(OCc2cccnc2)CC1,-75.8%
16,CN(CCCN1CCOCC1)C(=O)c1cc(COc2c(F)cccc2F)on1,2.44%
17,COc1ccc(CNC(=O)C[C@H]2C(=O)N(c3ccccc3)C[C@@H]2Cc2ccccc2)cc1,-49.4%
18,CCC(=O)Nc1cccc(-c2nc3ccccc3c(=O)o2)c1,13%
19,Cc1cc2[nH]c(=O)c(=O)[nH]c2cc1S(=O)(=O)NCc1ccc(Cl)cc1,-0.128%
20,O=C(CN1C(=O)/C(=C/c2ccccc2F)SC1=S)NC1C=CS(=O)(=O)C1 (centres unmarked),11.9%
21,CC(C)OCCCn1c(=O)c2ccccc2n2c(CCC(=O)NCc3ccccn3)nnc12,-14.4%
22,CN(C)C(=O)CN(c1ccc(F)c(Cl)c1)S(C)(=O)=O,9.09%

row,SMILES,"hERG current change (%, negative = inhibition) at 10uM"
1,Cc1cccc(CC(=O)Nc2ccc(C(=O)N3CCOCC3)cc2)c1,12.5%
2,CCOC(=O)c1ccc(NC(=O)CSc2nnc(CC)o2)cc1,0.222%
3,Cc1cc(NC(=O)CCC(=O)N(Cc2ccco2)C2(C(=O)NC3CCCC3)CCC(C)CC2)no1 (centres unmarked),-4.65%
4,Br.CC12CN3CC(C)(CN(C1)C3c1cc3ccccc3[nH]1)C2=O (centres unmarked),-2.36%
5,COc1ccccc1N1CCN(C(=O)C2=CC=CN3CCS(=O)(=O)N=C23)CC1,28.2%
6,O=C(Nc1ccc(C2=NCCN2)cc1)c1ccc(C(=O)Nc2ccc(C3=NCCN3)cc2)c([N+](=O)[O-])c1,20.1%
7,O=C(NC1CC1)C(=O)c1c[nH]c2ccccc12,18.2%
8,Cc1onc(-c2c(Cl)cccc2Cl)c1C(=O)NN1CCCCCC1,-7.15%
9,C#CCOCCOCCOCCNc1nc(N2CCN(C(=O)[C@H](CCC(=O)O)n3cc(C(N)CC(C)C)nn3)CC2)nc(N2CCN(C(=O)[C@H](Cc3cc4ccccc4[nH]3)n3cc(C(N)CC(C)C)nn3)CC2)n1.Cl (some centres unmarked),9.13%
10,CCn1c(SCC(=O)N2CCCC2)nc2ccccc2c1=O,-23%
11,S=c1[nH]nc(COc2ccc3ccccc3c2)o1,20.4%
12,Cc1cc(C(=O)N2CCN(Cc3ccc4c(c3)OCO4)CC2)cs1,-43.2%
13,Cc1ccc(C(=O)Nc2nc3ccc(S(C)(=O)=O)cc3s2)o1,-0.566%
14,Cc1noc(C)c1COc1ccccc1C(=O)N(C)Cc1ccc(C(C)(C)C)cc1,-27.4%
15,Cc1cccc(NC(=O)c2cc(S(=O)(=O)N3CCC4(CC3)OCCO4)ccc2F)c1,-22%
16,O=C(COC(=O)c1ccc(O)cc1O)Nc1nnc(-c2ccccc2)o1,15.4%
17,Cc1ccc2nc(NCCC(=O)O)nc(-c3ccccc3)c2c1,3.76%
18,COc1ccc(CN2CCCC(N3CCN(c4cccc(Cl)c4)CC3)C2)cc1OC (centres unmarked),-54.1%
19,O=C(CSc1nnnn1-c1ccccc1Cl)Nc1ccc2c(c1)OCCO2,15%
20,CCn1c(=O)oc2cc(NC(=O)CCl)ccc21,35.1%
